In PubChem BioAssay (Tox21):
Values joined by “and” are separate entries in the source; they are usually repeats but may differ in a detail not shown here. Equal values may be shown once. Inconclusive means that the source gave no clear call. Such entries were picked first, then a sample of the others. For some assays here: Potencies of inconclusive entries are doubtful fits and often do not repeat. Active and inactive are the calls of the source. Unless noted, calls follow the shape of the dose curve; as a rule, active = well fitted curve in the direction sought with a large enough effect in the repeat runs; inconclusive = weak or mixed curves; inactive = no such curve, though single readings can be large; an effect the other way counts as inactive or inconclusive.

What was measured:
[1] = target: Androgen receptor (Homo sapiens) (UniProt P10275); assay: qHTS assay to identify small molecule antagonists of the androgen receptor (AR) signaling pathway (AID 743035; active = well fitted inhibition curve with a large enough effect in the signal ratio in the repeat runs, not every such curve was filed as active; inconclusive = weak or mixed curves, or effect the other way; inactive = no such curve, though single readings can be large or run the other way; the % refers to the signal ratio; also: potency is read from the fitted curve at half-maximal effect; as to activity change, negative = inhibition: % is scaled to controls: 0 for no effect and ±100 for the full control effect); settings: HEK293 AR-UAS-bla, R1881-stimulated, beta-lactamase FRET, 16 h; activity change, negative = inhibition: at 58.5 µM (top of the series) unless noted
In short: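 Antagonism is scored as loss of R1881-driven beta-lactamase reporter expression in HEK293 cells carrying the reporter under a UAS element, after 16 h co-treatment at 37C and a 2 h room-temperature FRET substrate read.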

[2] = target: Androgen receptor (Homo sapiens) (UniProt P10275); assay: qHTS assay to identify small molecule agonists of the androgen receptor (AR) signaling pathway (AID 743036; active = well fitted activation curve with a large enough effect in the signal ratio in the repeat runs, with a control signal flat, not every such curve was filed as active; inconclusive = weak or mixed curves, or effect the other way; inactive = no such curve, though single readings can be large or run the other way; the % refers to the signal ratio; also: potency is read from the fitted curve at half-maximal effect; as to activation: % is scaled to controls: 0 for no effect and ±100 for the full control effect); settings: HEK293 AR-UAS-bla GripTite, beta-lactamase FRET ratio, 16 h; activation: at 62.4 µM (top of the series) unless noted
In short: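 Screening used 2,000 AR-bla HEK293 cells per well, treated 16 h at 37C with test compounds in DMSO alongside positive and DMSO-only controls; beta-lactamase activity was then read by LiveBLAzer B/G FRET fluorescence after 2 h at room temperature.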

[3] = target: Androgen receptor (Homo sapiens) (UniProt P10275); assay: qHTS assay to identify small molecule antagonists of the androgen receptor (AR) signaling pathway using the MDA cell line (AID 743042; also: potency is read from the fitted curve at half-maximal effect; nearly all actives have a fitted effect of over 55% in size)
In short: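 MDA-kb2 breast carcinoma cells carrying MMTV-luciferase (AR/GR responsive) were co-treated with compounds and the agonist R1881 for 16 h at 37C. Inhibition read as ONE-Glo luminescence; CellTiter-Fluor fluorescence measured in parallel for cytotoxicity.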

[4] = qHTS assay to identify small molecule antagonists of the thyroid receptor (TR) signaling pathway - cell viability counter screen (AID 743064); settings: GH3.TRE-Luc viability, CellTiter-Fluor, 24 h; activity change, negative = cytotoxic: at 70.3 µM (top of the series); also: potency is read from the fitted curve at half-maximal effect; nearly all actives have a fitted effect of over 50% in size
In short: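 Viability of T3-stimulated (1 nM final) GH3.TRE-Luc cells is measured by CellTiter-Fluor fluorescence after 23.5 h compound exposure at 37 °C plus 30 min reagent incubation.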

[5] = qHTS assay to identify small molecule antagonists of the estrogen receptor alpha (ER-alpha) signaling pathway - cell viability counter screen (AID 743074; calls by dose curve;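 also: HEK293 cells carrying ER-alpha-UAS-bla reporter stimulated with 17beta-estradiol; nearly all actives have a fitted effect of over 45% in size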; also: potency is read from the fitted curve at half-maximal effect)
[6] = qHTS assay to identify aromatase inhibitors - cell viability counter screen (AID 743084);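 also: cells stimulated with testosterone during compound exposure; potency is read from the fitted curve at half-maximal effect; nearly all actives have a fitted effect of over 55% in size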
[7] = qHTS assay to identify small molecule that activate the aryl hydrocarbon receptor (AhR) signaling pathway - cell viability counter screen (AID 743086); also: potency is read from the fitted curve at half-maximal effect; nearly all actives have a fitted effect of over 45% in size
In short: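 HepG2-AhR-luc (HG2L7.5c1) cells, 4000/well, treated 24 h at 37 C with compound; viability measured as CellTiter-Fluor fluorescence after 30 min in the same wells as the luciferase read.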

[8] = target: Peroxisome proliferator-activated receptor gamma (Homo sapiens) (UniProt P37231); assay: qHTS assay to identify small molecule agonists of the peroxisome proliferator-activated receptor gamma (PPARg) signaling pathway (AID 743094; active = well fitted activation curve with a large enough effect in the signal ratio in the repeat runs, not every such curve was filed as active; inconclusive = weak or mixed curves, or effect the other way; inactive = no such curve, though single readings can be large or run the other way; the % refers to the signal ratio; also: potency is read from the fitted curve at half-maximal effect; as to activation: % is scaled to controls: 0 for no effect and ±100 for the full control effect); settings: HEK293H PPARg-UAS-bla, beta-lactamase FRET ratio, 17 h; activation: at 57 µM (top of the series) unless noted
In short: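 Quantitative HTS agonist mode: stable HEK293H line with UAS-beta-lactamase reporter under PPARg control, 17 h compound exposure at 37C, fluorescence after 1 h FRET substrate loading at room temperature.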

[9] = target: Peroxisome proliferator-activated receptor gamma (Homo sapiens) (UniProt P37231); assay: qHTS assay to identify small molecule antagonists of the peroxisome proliferator-activated receptor gamma (PPARg) signaling pathway (AID 743191; calls by dose curve; also: nearly all actives have a fitted effect of over 30% in size; also: potency is read from the fitted curve at half-maximal effect); settings: HEK293H PPARg-UAS-bla, beta-lactamase ratio, antagonist, 17 h; ratio activity, negative = inhibition: at 62.6 µM (top of the series) unless noted
In short: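 GeneBLAzer PPARg UAS-bla HEK293H cells, 5 h post-plating, exposed to compounds 17 h at 37C. LiveBLAzer B/G FRET substrate added for 1 h at room temperature; beta-lactamase reporter read by fluorescence intensity.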

[10] = test system: thyroid hormone receptor (rat, GH3 cells); assay: qHTS assay to identify small molecule agonists of the thyroid receptor (TR) signaling pathway (AID 743066; calls by dose curve; also: potency is read from the fitted curve at half-maximal effect; as to activation: % is scaled to controls: 0 for no effect and ±100 for the full control effect); settings: GH3.TRE-Luc cells, TR agonist luciferase, 24 h; activation: at 83.9 µM (top of the series) unless noted
[11] = target: Estrogen receptor (Homo sapiens) (UniProt P03372); assay: qHTS assay to identify small molecule antagonists of the estrogen receptor alpha (ER-alpha) signaling pathway (AID 743069; active = well fitted curve in the direction sought with a large enough effect in the signal ratio in the repeat runs, not every such curve was filed as active; inconclusive = weak or mixed curves, or effect the other way; inactive = no such curve, though single readings can be large or run the other way; the % refers to the signal ratio; also: potency is read from the fitted curve at half-maximal effect); settings: HEK293 ER-alpha-UAS-bla, beta-lactamase ratio, antagonist mode; activity, negative = inhibition: at 69.4 µM (top of the series)
In short: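 HEK293 ER-alpha-UAS-bla GripTite cells, held overnight in 2% charcoal-stripped FBS, 5,000 cells/well, preincubated 4 h, then compound plus 17beta-estradiol for 18 h at 37C. Beta-lactamase read by LiveBLAzer B/G FRET substrate, 2 h at room temperature.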

[12] = target: Estrogen receptor (Homo sapiens) (UniProt P03372); assay: qHTS assay to identify small molecule agonists of the estrogen receptor alpha (ER-alpha) signaling pathway using the BG1 cell line (AID 743079); settings: BG1Luc4E2 cells, ERE-luciferase agonist, 22 h; activation: at 70.3 µM (top of the series) unless noted; also: potency is read from the fitted curve at half-maximal effect; nearly all actives have a fitted effect of over 20% in size
[13] = qHTS assay to identify small molecule antagonists of the estrogen receptor alpha (ER-alpha) signaling pathway using the BG1 cell line (AID 743080; calls by dose curve;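 also: BG1 cells stimulated with 17beta-estradiol alongside compound; nearly all actives have a fitted effect of over 25% in size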; also: potency is read from the fitted curve at half-maximal effect); settings: BG1Luc4E2 ERE-luciferase antagonist mode, luminescence; activity change, negative = inhibition: at 70.3 µM (top of the series) unless noted
In short: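 BG1-Luc-4E2 cells (endogenous full-length ER-alpha, 4xERE luciferase) hormone-starved 5 days in charcoal-stripped FBS, plated 4,000/well for 24 h, then compound plus 17beta-estradiol for 21.5 h at 37 C; ONE-Glo luminescence read.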

[14] = qHTS assay to identify small molecule antagonists of the thyroid receptor (TR) signaling pathway (AID 743065); also: potency is read from the fitted curve at half-maximal effect; nearly all actives have a fitted effect of over 55% in size
In short: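 GH3.TRE-Luc rat pituitary cells (two TREs driving luciferase) were dosed with compound, then stimulated with 1 nM T3 (final) for 23.5 h at 37 C. ONE-Glo luminescence was the read-out, with CellTiter-Fluor fluorescence as the cytotoxicity counter-screen.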

Aromatase (Homo sapiens) = Aromatase (Homo sapiens) (UniProt P11511); assay: qHTS assay to identify aromatase inhibitors (AID 743083); also: % is scaled to controls: 0 for no effect and ±100 for the full control effect; nearly all actives have a fitted effect of over 55% in size
[15] = target: Estrogen receptor (Homo sapiens) (UniProt P03372); assay: qHTS assay to identify small molecule agonists of the estrogen receptor alpha (ER-alpha) signaling pathway (AID 743075; calls by dose curve; also: potency is read from the fitted curve at half-maximal effect); settings: HEK293 ER-alpha-UAS-bla, beta-lactamase FRET ratio, 18 h; activation: at 70.1 µM (top of the series)
[16] = qHTS assay to identify small molecule antagonists of the estrogen receptor alpha (ER-alpha) signaling pathway using the BG1 cell line - cell viability counter screen (AID 743081);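 also: compound given together with 17beta-estradiol as the ER stimulus; potency is read from the fitted curve at half-maximal effect; nearly all actives have a fitted effect of over 45% in size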
[17] = target: Aryl hydrocarbon receptor (Homo sapiens) (UniProt P35869); assay: qHTS assay to identify small molecule that activate the aryl hydrocarbon receptor (AhR) signaling pathway (AID 743085); also: potency is read from the fitted curve at half-maximal effect; nearly all actives have a fitted effect of over 15% in size
In short: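 A multiplexed format paired cell viability (CellTiter-Fluor fluorescence) with AhR-dependent luciferase output (ONE-Glo luminescence) in the same wells of HepG2 DRE-luc cells after 24 h compound exposure at 37C.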
Tags tell the direction and shape of the fitted curve or compound fluorescence and quenching.

Chain of UniProt P10275 (P10275 whole entry, looked up): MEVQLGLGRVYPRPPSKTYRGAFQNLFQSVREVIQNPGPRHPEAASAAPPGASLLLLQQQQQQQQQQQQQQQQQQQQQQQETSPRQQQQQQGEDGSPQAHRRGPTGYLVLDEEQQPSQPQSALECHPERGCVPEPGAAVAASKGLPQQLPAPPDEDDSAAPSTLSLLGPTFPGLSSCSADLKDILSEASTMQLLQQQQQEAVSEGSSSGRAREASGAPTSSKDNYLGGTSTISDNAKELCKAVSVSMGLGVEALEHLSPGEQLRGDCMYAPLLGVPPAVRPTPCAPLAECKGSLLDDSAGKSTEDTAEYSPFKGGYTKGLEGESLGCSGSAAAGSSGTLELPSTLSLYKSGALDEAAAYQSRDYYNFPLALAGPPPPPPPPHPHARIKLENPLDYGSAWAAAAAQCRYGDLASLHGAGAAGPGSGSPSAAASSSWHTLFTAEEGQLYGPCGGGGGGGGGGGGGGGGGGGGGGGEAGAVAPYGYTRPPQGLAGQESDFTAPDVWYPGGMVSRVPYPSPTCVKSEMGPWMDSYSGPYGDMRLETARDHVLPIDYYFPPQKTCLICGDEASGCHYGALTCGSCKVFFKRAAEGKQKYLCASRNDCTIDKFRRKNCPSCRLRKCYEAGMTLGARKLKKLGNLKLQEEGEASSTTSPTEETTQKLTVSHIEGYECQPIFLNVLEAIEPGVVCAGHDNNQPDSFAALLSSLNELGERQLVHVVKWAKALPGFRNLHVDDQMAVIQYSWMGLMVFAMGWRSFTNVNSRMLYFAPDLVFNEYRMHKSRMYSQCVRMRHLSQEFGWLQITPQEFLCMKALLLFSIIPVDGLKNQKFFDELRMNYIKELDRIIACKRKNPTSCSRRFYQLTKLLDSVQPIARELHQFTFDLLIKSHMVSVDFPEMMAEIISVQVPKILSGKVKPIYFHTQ
Chain of UniProt P03372 (P03372 whole entry, looked up): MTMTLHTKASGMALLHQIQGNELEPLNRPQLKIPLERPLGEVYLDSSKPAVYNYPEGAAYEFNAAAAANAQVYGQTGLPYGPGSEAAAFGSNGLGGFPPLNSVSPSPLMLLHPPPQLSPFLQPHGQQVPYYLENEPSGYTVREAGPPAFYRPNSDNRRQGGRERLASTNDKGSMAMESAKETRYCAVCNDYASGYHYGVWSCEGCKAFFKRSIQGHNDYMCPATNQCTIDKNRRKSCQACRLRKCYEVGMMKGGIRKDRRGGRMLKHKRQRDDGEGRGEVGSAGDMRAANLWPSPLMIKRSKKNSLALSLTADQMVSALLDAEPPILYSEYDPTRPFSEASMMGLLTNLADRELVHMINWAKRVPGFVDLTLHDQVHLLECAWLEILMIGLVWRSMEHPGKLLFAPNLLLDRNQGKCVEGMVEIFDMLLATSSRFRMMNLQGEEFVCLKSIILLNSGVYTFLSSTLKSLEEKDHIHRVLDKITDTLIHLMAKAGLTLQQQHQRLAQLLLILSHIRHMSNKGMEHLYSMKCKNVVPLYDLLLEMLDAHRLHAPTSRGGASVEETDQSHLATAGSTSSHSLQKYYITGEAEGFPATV
Chain of UniProt P37231 (P37231 whole entry, looked up): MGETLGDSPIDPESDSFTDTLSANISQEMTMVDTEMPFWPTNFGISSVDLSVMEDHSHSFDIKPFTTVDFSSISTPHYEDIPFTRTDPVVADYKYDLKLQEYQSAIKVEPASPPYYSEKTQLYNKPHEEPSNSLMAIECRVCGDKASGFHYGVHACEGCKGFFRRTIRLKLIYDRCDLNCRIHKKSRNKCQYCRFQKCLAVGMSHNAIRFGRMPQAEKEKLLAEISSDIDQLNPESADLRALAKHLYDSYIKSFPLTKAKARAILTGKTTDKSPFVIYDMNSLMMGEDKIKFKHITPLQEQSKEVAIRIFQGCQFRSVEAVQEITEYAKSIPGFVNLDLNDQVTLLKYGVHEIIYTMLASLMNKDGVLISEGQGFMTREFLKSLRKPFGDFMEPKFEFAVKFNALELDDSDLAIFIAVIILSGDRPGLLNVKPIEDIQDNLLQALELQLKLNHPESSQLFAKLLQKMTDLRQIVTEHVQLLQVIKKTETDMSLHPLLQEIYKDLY
Chain of UniProt P35869 (P35869 whole entry, looked up): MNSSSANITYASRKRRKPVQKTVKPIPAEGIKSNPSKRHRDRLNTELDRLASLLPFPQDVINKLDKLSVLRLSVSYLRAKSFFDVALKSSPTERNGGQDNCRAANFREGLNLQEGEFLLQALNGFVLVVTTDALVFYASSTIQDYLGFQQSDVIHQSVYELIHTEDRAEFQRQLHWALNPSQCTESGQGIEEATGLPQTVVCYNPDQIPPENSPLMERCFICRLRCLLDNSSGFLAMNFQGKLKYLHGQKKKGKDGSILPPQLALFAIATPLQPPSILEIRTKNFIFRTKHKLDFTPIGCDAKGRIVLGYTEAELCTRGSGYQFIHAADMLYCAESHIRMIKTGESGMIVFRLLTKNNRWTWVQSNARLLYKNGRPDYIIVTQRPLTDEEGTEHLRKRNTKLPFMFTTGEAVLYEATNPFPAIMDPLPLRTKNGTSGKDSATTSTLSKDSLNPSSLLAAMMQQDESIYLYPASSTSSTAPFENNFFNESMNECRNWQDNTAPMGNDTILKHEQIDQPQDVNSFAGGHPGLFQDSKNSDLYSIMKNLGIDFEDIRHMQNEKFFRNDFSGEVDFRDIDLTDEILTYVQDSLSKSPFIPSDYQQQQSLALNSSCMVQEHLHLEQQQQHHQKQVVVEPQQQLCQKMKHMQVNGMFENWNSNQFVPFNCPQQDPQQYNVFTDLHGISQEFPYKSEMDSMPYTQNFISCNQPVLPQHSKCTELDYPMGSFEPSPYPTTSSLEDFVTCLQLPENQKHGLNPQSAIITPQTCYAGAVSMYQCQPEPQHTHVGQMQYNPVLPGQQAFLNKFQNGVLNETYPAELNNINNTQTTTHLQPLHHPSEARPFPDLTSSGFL
Chain of UniProt P11511 (P11511 whole entry, looked up): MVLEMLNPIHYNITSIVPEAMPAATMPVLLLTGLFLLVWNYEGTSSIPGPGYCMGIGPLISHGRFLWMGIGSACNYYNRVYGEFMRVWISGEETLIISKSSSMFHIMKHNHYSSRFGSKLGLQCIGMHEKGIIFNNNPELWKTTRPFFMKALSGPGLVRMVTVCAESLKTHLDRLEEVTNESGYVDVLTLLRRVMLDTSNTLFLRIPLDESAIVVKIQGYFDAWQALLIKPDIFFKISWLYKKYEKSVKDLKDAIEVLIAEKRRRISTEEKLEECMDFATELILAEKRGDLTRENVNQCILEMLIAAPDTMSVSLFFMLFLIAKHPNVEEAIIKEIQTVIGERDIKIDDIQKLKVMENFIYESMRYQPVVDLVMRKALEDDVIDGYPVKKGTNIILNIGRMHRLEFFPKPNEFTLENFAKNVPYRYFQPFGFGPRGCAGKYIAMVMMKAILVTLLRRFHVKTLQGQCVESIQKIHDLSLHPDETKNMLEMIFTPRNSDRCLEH

**Q.** What does the source list for Nc1ccc([N+](=O)[O-])cc1?
**A.** Potency [1]: active: 43.6 µM; Potency [2]: inconclusive: 5.49 µM [single point]; Potency [3]: inconclusive: 61.1 µM [inhibitor]; Potency [4]: inconclusive: 12.6 µM [cytotoxic]; Potency [5]: inconclusive: 0.0347 µM [rising, full curve, poor fit]; Potency [6]: inconclusive: 27.3 µM [cytotoxic]; Potency [7]: active: 40.9 µM; Potency [8]: inconclusive: 3.47 µM [inhibitor]; Potency [9]: inconclusive: 43.6 µM [rising, partial curve]

**Q.** What does the source list for CCCCOCN(C(=O)CCl)c1c(CC)cccc1CC?
**A.** activity change, negative = inhibition [1]: inconclusive: -75.3%; Potency [2]: inconclusive: 2.75 µM [rising, full curve, poor fit]; Potency [4]: inconclusive: 68.6 µM [cytotoxic, single point]; Potency [10]: inconclusive: 68.6 µM [inhibitor, partial curve, poor fit]; Potency [11]: inconclusive: 3.47 µM [rising, full curve, poor fit]; Potency [12]: inconclusive: 77 µM [inhibitor]; Potency [6]: inconclusive: 68.6 µM [cytotoxic, single point]; activation [8]: inconclusive: -15.6%; Potency [9]: inconclusive: 6.92 µM [partial curve]

**Q.** Which results are given for Cc1cc(C(C)(C)c2cc(C)c(O)c(C)c2)cc(C)c1O?
**A.** Potency [1]: inconclusive: 37.6 µM [falling, partial curve]; Potency [2]: inconclusive: 47.4 µM [cytotoxic]; Potency [4]: active: 23.5 µM; Potency [5]: inconclusive: 53.1 µM [cytotoxic, single point]; Potency [13]: inconclusive: 66.3 µM [falling, single point]; Potency [7]: active: 52.7 µM; Potency [8]: inconclusive: 10.6 µM [inhibitor, partial curve, poor fit]

**Q.** Which Potency [1] does the source give for NCCCNCCCN here?
**A.** inconclusive: 62.6 µM [falling, single point]

**Q.** What about the Potency [2] of the same molecule?
**A.** inconclusive: 55.8 µM [partial curve]

**Q.** What about the Potency [4] of the same molecule?
**A.** active: 62.1 µM

**Q.** And the Potency [14]?
**A.** active: 62.1 µM

**Q.** What about the Potency [10] of the same molecule?
**A.** inconclusive: 69.6 µM [inhibitor, partial curve, poor fit]

**Q.** And the Potency [5]?
**A.** inconclusive: 62.6 µM [cytotoxic, single point]

**Q.** And the Potency [6]?
**A.** inconclusive: 69.6 µM [cytotoxic, single point]

**Q.** With COc1ccc(C=O)cc1O as the molecule, how does the activity change, negative = inhibition [1] read?
**A.** inconclusive: -1.14% [at 78.9 µM]

**Q.** And the Potency [2]?
**A.** inconclusive: 39.1 µM [rising, partial curve, poor fit]

**Q.** What about the Potency [5] of the same molecule?
**A.** inactive

**Q.** And the Potency (Aromatase (Homo sapiens))?
**A.** inactive

**Q.** Which Potency [1] does the source give for ClC1=C(Cl)C2(Cl)C3C(Cl)C(Cl)CC3C1(Cl)C2(Cl)Cl (stereo not given) here?
**A.** active: 48.8 µM and active: 43.6 µM

**Q.** And the Potency [2]?
**A.** inactive and inconclusive: 54.9 µM [single point]

**Q.** And the Potency [3]?
**A.** inconclusive: 68.6 µM [inhibitor, single point]

**Q.** What about the activation [10] of the same molecule?
**A.** inconclusive: -8.37% [phenotype inactive]

**Q.** What about the Potency [11] of the same molecule?
**A.** inconclusive: 48.8 µM and inconclusive: 49 µM [fluorescent, partial curve]

**Q.** And the Potency [5]?
**A.** inconclusive: 54.8 µM [cytotoxic, single point] and inconclusive: 54.9 µM [cytotoxic, single point]

**Q.** What about the Potency [15] of the same molecule?
**A.** inconclusive: 54.9 µM

**Q.** And the Potency [12]?
**A.** inconclusive: 76.7 µM [inhibitor, single point] and inconclusive: 68.6 µM [inhibitor, single point]

**Q.** And the Potency [13]?
**A.** inconclusive: 68.6 µM [falling, single point]

**Q.** And the activity change, negative = inhibition [13]?
**A.** inconclusive: 1.83%

**Q.** And the Potency [16]?
**A.** inconclusive: 68.6 µM [cytotoxic]

**Q.** What about the Potency [6] of the same molecule?
**A.** inconclusive: 60.9 µM [cytotoxic, single point] and inconclusive: 68.6 µM [cytotoxic, single point]

**Q.** What about the Potency [7] of the same molecule?
**A.** inconclusive: 68.6 µM [falling, partial curve, poor fit]

**Q.** And the Potency [8]?
**A.** inconclusive: 61.6 µM

**Q.** What about the activation [8] of the same molecule?
**A.** inconclusive: 16.5%

**Q.** Which Potency [1] does the source give for C[C@H](CN1CCOCC1)C(C(=O)N1CCCC1)(c1ccccc1)c1ccccc1 here?
**A.** inconclusive: 47.3 µM [falling, partial curve]

**Q.** What about the Potency [4] of the same molecule?
**A.** inconclusive: 23.5 µM [cytotoxic, partial curve, poor fit]

**Q.** And the Potency [14]?
**A.** inconclusive: 16.6 µM [inhibitor, partial curve]

**Q.** And the Potency [5]?
**A.** inconclusive: 29.9 µM [cytotoxic, single point]

**Q.** And the Potency [16]?
**A.** inconclusive: 37.3 µM [cytotoxic, single point]

**Q.** And the Potency [17]?
**A.** inconclusive: 93.6 µM [activator]

**Q.** What about the Potency [7] of the same molecule?
**A.** inconclusive: 83.4 µM [falling, single point]

**Q.** And the ratio activity, negative = inhibition [9]?
**A.** inconclusive: 1.01% [at 81.1 µM]

**Q.** Which results are given for OC(c1ccc(Cl)cc1)(c1ccc(Cl)cc1)c1cccnc1?
**A.** Potency [1]: active: 34.7 µM; Potency [3]: active: 61.1 µM; Potency [11]: inconclusive: 49 µM [partial curve]; Potency [12]: inconclusive: 68.6 µM [inhibitor, partial curve, poor fit]; Potency [8]: inconclusive: 61.6 µM [falling, partial curve, poor fit]; ratio activity, negative = inhibition [9]: inconclusive: -40.5%
